Reference: PubChem BioAssay AID1347073 (National Center for Advancing Translational Sciences (NCATS), 2019)
Screen size: about 45,000 compounds; about 200 (0.44%) were called active. Another 7% or so got no clear call; they are omitted. Calls follow the shape of the dose curve; as a rule, active = well fitted activation curve with a large enough effect; inconclusive = small, poorly fitted or top-dose-only effect; inactive = no such curve, though single readings can be large or run the other way. This is one part of the list.

experiment: qHTS of TDP-43 Inhibitors: NCGC Sytravon Library Screen; conditions: yeast TDP-43 toxicity rescue, BacTiter-Glo growth, 24 h; series mostly up to 46.1 µM; growth rescue (activation): at the top concentration; also: 0% is about no effect; nearly all actives have a fitted effect of over 55% in size
Method in brief: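 TDP-43-expressing yeast, pregrown in raffinose, seeded at OD600 0.02 in galactose medium with compound for 24 hr at 30 deg C. Growth read by BacTiter-Glo luminescence, so rescue of toxicity appears as activation.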

| SMILES | growth rescue (activation) |
| --- | --- |
| Cc1ccccc1Cn1c(=O)n(CCCCCC(=O)NCc2ccc3c(c2)OCO3)c(=O)c2sccc21 | inactive: 2.71% |
| COc1ccc(C2CC(=O)n3c(nc4ccccc43)S2)cc1OC (stereo unspecified) | inactive: 5.73% |
| O=C(COC(=O)C1=COCCO1)Nc1ccccc1 | inactive: -1.38% |
| CCC(C)(C)n1nnnc1C(c1cc(OC)ccc1OC)N1CCN(Cc2ccccc2)CC1 (stereo unspecified) | inactive: 5.39% |
| Cc1ccc(NC(=O)CSc2nccc(=O)[nH]2)c(S(=O)(=O)N2CCOCC2)c1 | inactive: -21.8% |
| Cc1ccc(S(=O)(=O)Nc2ccc(NC(=O)c3ccc(F)cc3)cc2)cc1 | inactive: -9% |
| O=C(/C=C/c1ccco1)NC(=S)Nc1cc(-c2nc3ccccc3s2)ccc1Cl | inactive: -6.54% |
| CCCC(=O)Nc1ccc(NC(=O)c2ccccn2)cn1 | inactive: 25.2% |
| Nc1ncc2c(n1)-c1ccccc1CC2 | inactive: 20.4% |
| Cc1n[nH]c(=O)nc1NCc1ccco1 | inactive: 5.99% |
| C=CCOc1ccccc1CN1CCC(CO)(CCOc2ccccc2)CC1 | inactive: 5.69% |
| CC(C)Sc1nc2sc3c(c2c(=O)n1-c1ccccc1)CCCC3 | inactive: 4.44% |
| CN(C)S(=O)(=O)c1cc(NC(=O)COC(=O)Cc2ccc(Cl)cc2Cl)ccc1Cl | inactive: -0.874% |
| CCn1c(=O)c2ccccc2n(CC(=O)NC2CCCCC2)c1=O | inactive: -17.9% |
| CCOC(=O)C1=C(C)NC(=S)NC1c1ccc(OCC(=O)N2CCCCCC2)c(OC)c1 (stereo unspecified) | inactive: -5.64% |
| COc1ccc(C2=NOC(C(=O)N(C)Cc3ccccc3)C2)cc1 (stereo unspecified) | inactive: 27.6% |
| COc1ccc(C(C)=O)cc1COC(=O)c1ccc2ccccc2n1 | inactive: 20.7% |
| CCCc1c(C(=O)OCC)sc(N)c1C#N | inactive: -26% |
| O=C(NCc1cccs1)c1ccc2nc([C@@H]3O[C@H](CO)[C@H](O)[C@H](O)[C@H]3O)[nH]c2c1 | inactive: 10% |
| Cc1nn(CC(=O)Nc2ccc3c(c2)OCCO3)c(C)c1[N+](=O)[O-] | inactive: -5.52% |
| COC(=O)c1cc(NC(C)=O)ccc1N1CCOCC1 | inactive: 8.24% |
| COc1cccc(CNC(=O)CCC2CCCN(C(=O)c3csc(C(C)C)n3)C2)c1 (stereo unspecified) | inactive: 4.39% |

| SMILES | growth rescue (activation) |
| --- | --- |
| O=C(N/N=C/c1ccc(O)c2ncccc12)c1cccc(Br)c1 | inactive: -73.5% |
| CC(=O)Nc1ccc(S(=O)(=O)NCC(=O)OCC(=O)NC23CC4CC(CC(C4)C2)C3)cc1 | inactive: -2.88% |
| CN(C)CCCNC(=O)c1ccc(/C=N/O)nc1 | inactive: -0.939% |
| CN(CC(=O)Nc1ccc2c(c1)OCO2)S(=O)(=O)c1cccs1 | inactive: 12.1% |
| C(=N\Nc1nncc2ccccc12)/c1ccccn1 | inactive: 1.63% |
| Cc1nnc(SCC(=O)Nc2ccc(C(N)=O)cc2)n1-c1ccccc1 | inactive: -13.6% |
| COc1ccc(OCC(=O)N(Cc2ccc(C)o2)C2CCS(=O)(=O)C2)cc1 (stereo unspecified) | inactive: 5.06% |
| O=C(Nc1ccc(F)c(Cl)c1)c1cncs1 | inactive: 18.4% |
| Cn1c(=O)c2c(ncn2CC(=O)N2CCOCC2)n(C)c1=O | inactive: -2.49% |
| Cc1c(CC(=O)N2CCN(C(=O)C3COc4ccccc4O3)CC2)c(=O)oc2c(O)c(O)ccc12 (stereo unspecified) | inactive: -0.773% |
| CN1CCN(CCNC(=O)c2cn(Cc3ccccc3F)nn2)CC1 | inactive: -5.42% |
| CC/C(=N\NC(=O)CSCc1ccccc1Cl)c1ccc2c(c1)OCCO2 | inactive: 15.1% |
| CC(=O)Nc1cc(-c2cccc(C(=O)NCCO)c2)cn2c(-c3ccc(F)c(Cl)c3)cnc12 | inactive: 1.99% |
| Cc1c(C(=O)N2CCN(c3ccc(F)cc3)CC2)sc2ncnc(N3CCN(c4ccccn4)CC3)c12 | inactive: 12.6% |
| CC(/C=C/C=C/c1ccccc1)=N/NC(=O)C(O)c1ccccc1 (stereo unspecified) | inactive: 7.21% |
| Cn1ccnc1C1CCCCN1C(=O)c1cc(COc2ccc(F)cc2Cl)on1 (stereo unspecified) | inactive: 4.31% |
| CC(OC(=O)c1ccc(NS(=O)(=O)c2ccc3[nH]c(=O)[nH]c3c2)cc1)C(N)=O (stereo unspecified) | inactive: 9.89% |
| COc1ccc(NC(=O)CN2C(=O)C(c3ccc(C)cc3)=NC23CCCCCC3)cc1Cl | inactive: 20.2% |
| COc1ccc(C2=NN(S(C)(=O)=O)C(c3cccs3)C2)cc1OC (stereo unspecified) | inactive: 16.3% |
| CCOc1ccc(-n2c(C)cc(/C=N/Nc3nc(C)cc(=O)[nH]3)c2C)cc1 | inactive: 13.2% |
| Cc1ccc(/C=C/c2nc3sc(C(=O)O)c(C)c3c(=O)[nH]2)cc1[N+](=O)[O-] | inactive: 20.5% |
| CC1CCCCN1C(=O)CSc1nc2c(c(=O)n(C)c(=O)n2C)n1C (stereo unspecified) | inactive: 9.34% |

| SMILES | growth rescue (activation) |
| --- | --- |
| CC(=O)c1ccccc1NC(=O)COC(=O)CCCN1C(=O)c2cccc3cccc(c23)C1=O | inactive: -17.4% |
| C(=C\c1ccccc1)/CSc1nc2ncccc2[nH]1 | inactive: 21.2% |
| Cc1ccccc1NC(=O)NC1(C(=O)NCc2ccco2)CCCCC1 | inactive: 19.6% |
| CCCc1nc2nc(C)c(NS(=O)(=O)c3ccc(C(C)(C)C)cc3)c(=O)n2[nH]1 | inactive: -3.59% |
| O=C(COC(=O)CC1CC2CCC1C2)NCc1ccccc1 (stereo unspecified) | inactive: 17.8% |
| Nc1ccc2nc(SCC(=O)N3CCOCC3)sc2c1 | inactive: 7.66% |
| CC1=C(C(=O)N2CCOCC2)C(c2c(C)cc(C)cc2C)NC(=S)N1 (stereo unspecified) | inactive: -10.2% |
| O=C(O)C1CC=CCC1C(=O)N1CCCC1 (stereo unspecified) | inactive: -7.18% |
| Cc1nnc(N2C(=O)C(O)=C(C(=O)c3ccco3)C2c2cccc([N+](=O)[O-])c2)s1 (stereo unspecified) | inactive: -0.553% |
| COC(=O)c1ccccc1S(=O)(=O)NNC(=O)c1nn(C)c(=O)c2ccccc12 | inactive: 0.176% |
| CCC(C)NC(=O)C1c2ccccc2C(=O)N1Cc1ccc(F)cc1 (stereo unspecified) | inactive: 7.25% |
| CCCOc1ccc(C(=O)Nc2ccc(S(=O)(=O)Nc3onc(C)c3C)cc2)cc1 | inactive: -6.09% |
| COc1ccccc1Cn1c(=O)c2ccccc2n2c(SCC(=O)N3CCCCC3)nnc12 | inactive: 20.4% |
| CC(=O)NS(=O)(=O)c1ccc(NC(=O)c2cc3c(=O)n4ccccc4nc3s2)cc1 | inactive: -17.3% |
| O=C(/C=C/c1ccc(S(=O)(=O)N2CCOCC2)cc1)NC(=S)NCCCn1ccnc1 | inactive: 15.8% |
| Cc1ccc(NC(=O)COC(=O)/C=C/c2c(C)nn(-c3ccc(F)cc3)c2Cl)cc1F | inactive: 19.4% |
| CCOc1ccccc1NC(=O)C(NCCN(C)C)c1ccccc1 (stereo unspecified) | inactive: -3.23% |
| CNc1ncc(C(=O)C(C)(C)C)s1 | inactive: 14.3% |
| Cc1ccc2nc(C)cc(C(=O)N3CCCC(CO)(Cc4ccccc4C)C3)c2c1 (stereo unspecified) | inactive: -1.2% |
| O=C(Cn1ncc(Cl)c(Cl)c1=O)N1CCN(S(=O)(=O)c2ccc3ccccc3c2)CC1 | inactive: 2.46% |
| CN=C1S/C(=C\c2ccc(N3CCOCC3)cc2C)C(=O)N1C | inactive: 31.5% |
| Cc1csc(NC(=O)c2cc3c(s2)CCC3)n1 | inactive: -24.7% |

| SMILES | growth rescue (activation) |
| --- | --- |
| O=C(c1cc(COc2ccc(F)c(F)c2)on1)N1CCSCC1 | inactive: 37% |
| Cc1ccc(Cl)cc1NC(=S)N1CCC(c2ccccc2)C1 (stereo unspecified) | inactive: 0.382% |
| O=C(Nc1ccccc1N1CCCCC1)c1ccc(-c2cc(Cl)ccc2Cl)o1 | inactive: 23.7% |
| CCOP(=O)(OCC)C(Nc1ccc(F)cc1)c1ccccc1 (stereo unspecified) | inactive: 15.9% |
| Cn1c(CC(=O)Nc2ccccc2F)nnc1SCC(=O)Nc1ccccc1Br | inactive: -8.12% |
| CC(=O)c1ccc(N2CC(C)(C)C2=O)cc1 | inactive: 7.66% |
| Cc1ccc(C(=O)N2CC(=O)NC(=O)C2)cc1 | inactive: -0.212% |
| O=C(CCn1c2c(c3ccccc31)CCCC2)NNC(=O)c1ccc([N+](=O)[O-])cc1 | inactive: 16.7% |
| NS(=O)(=O)c1cc(C(=O)NCC2CCCCC2)ccc1Cl | inactive: 3.46% |
| Clc1cc2c(cc1/C=N/Nc1nc(N3CCOCC3)nc(N3CCOCC3)n1)OCO2 | inactive: 19.1% |
| Cc1nn(CC(=O)N2CCN(c3ccccc3)CC2)c(C)c1[N+](=O)[O-] | inactive: -0.893% |
| COc1ccc(C2Nc3cccc4cccc(c34)N2)cc1Br | inactive: 19.5% |
| O=C(CSc1nc(NS(=O)(=O)c2ccccc2)cc(=O)[nH]1)Nc1ccccc1C(F)(F)F | inactive: 5.3% |
| CCC(Oc1ccccc1)C(=O)Nc1ccccc1C(=O)N1CCN(C)CC1 (stereo unspecified) | inactive: 17.3% |
| O=C(COC(=O)CNC(=O)c1ccccc1)Nc1ccc(S(=O)(=O)N2CCCC2)cc1 | inactive: 1.25% |
| CCOC(=O)c1sc(/N=C/Nc2nc(C)c(C(=O)OCC)s2)nc1C | inactive: -27.6% |
| CCc1nc2ccc(C(=O)Nc3cccc(OCC(=O)N(C)C)c3)cn2c1N(CCN(C)C)CC1CC1 | inactive: 7.47% |
| CCN(CC)C(=S)NC(=O)Cc1ccccc1 | inactive: -10.5% |
| COc1cccc(NC(=O)C(Sc2nnc(-c3ccncc3)n2-c2ccc(Cl)cc2)c2ccccc2)c1 (stereo unspecified) | inactive: 16.8% |
| Cc1ccc2c(C)c(C(=O)N(C)C(C)c3ccon3)oc2c1C (stereo unspecified) | inactive: 21.1% |
| COc1ccc(C(=O)C2CCCN(Cc3cccn3-c3ccccn3)C2)cc1F (stereo unspecified) | inactive: 12.3% |
| CC(=O)Nc1ccc(Oc2ncccn2)c(Cl)c1 | inactive: 6.68% |

| SMILES | growth rescue (activation) |
| --- | --- |
| Cc1noc(C)c1COC(=O)c1ccc(S(=O)(=O)N2CCCCC2)cc1 | inactive: 11.1% |
| CC(OC(=O)c1ccccn1)C(=O)Nc1nc(-c2ccc(F)c(F)c2)cs1 (stereo unspecified) | inactive: 1.62% |
| O=C(Nc1ccc(N2CCOCC2)c(S(=O)(=O)Nc2ccccc2Cl)c1)c1ccc(F)cc1 | inactive: 2.14% |
| CN1C(=S)SC(/[N+]([O-])=C/c2ccc(Cl)cc2)C1(C)C (stereo unspecified) | inactive: 25.1% |
| Nc1nnc(SCC(=O)Nc2nccs2)s1 | inactive: -17.2% |
| Cc1ccc(N(CC(O)CN2CCCC2)S(=O)(=O)c2ccc(C)cc2)cc1 (stereo unspecified) | inactive: -2.71% |
| COc1cccc(CNS(=O)(=O)c2ccc3c(c2)oc(=O)n3C)c1 | inactive: -30.5% |
| O=C(COc1ccccc1Cl)NCCCNC(=O)c1ccccn1 | inactive: 11.2% |
| Cc1cnc(NC(=O)CC(C)c2ccccc2)s1 (stereo unspecified) | inactive: 1.61% |
| COc1ccc(C2C(C#N)=C(/N=C/N3CCN(C)CC3)OC3=C2C(=O)CC(C)(C)C3)cc1 (stereo unspecified) | inactive: 14.8% |
| CC1Cc2ccccc2N1S(=O)(=O)c1cccc(C(=O)Nc2cccnc2)c1 (stereo unspecified) | inactive: 29.6% |
| O=C(c1cc(-c2ccccc2O)on1)N1CCCCC1 | inactive: 26.6% |
| CCCCOC(=O)Nc1ccc(S(=O)(=O)Nc2nccs2)cc1 | inactive: 2.55% |
| CCOc1ccc2nc(SCC(=O)Nc3cccc(S(=O)(=O)NC4=NCCCCC4)c3)[nH]c2c1 | inactive: -7.88% |
| Cc1ccc(NC(=O)CCNC(=O)c2ccc([N+](=O)[O-])cc2)cc1C | inactive: 17.3% |
| Cc1ccc(CCN2CC(C(=O)NCCC(C)C)CC2=O)cc1 (stereo unspecified) | inactive: -14% |
| Cc1ccc(S(=O)(=O)N2CCCCC2)cc1NS(=O)(=O)c1cccc(C(=O)O)c1 | inactive: 7.12% |
| O=C(CSc1ccccc1F)NC1CCS(=O)(=O)C1 (stereo unspecified) | inactive: 10.7% |
